Measurements from PubChem BioAssay (NCI).
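Interpolation was linear, between the two tested concentrations surrounding the appropriate level; five concentrations were tested over 48 hours in 96-well plates. Abbreviation: GI50, concentration required for 50% inhibition of growth. TGI denotes the concentration required for complete inhibition of growth.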

Tested on: NCI-H322M lung
Test: inhibition of tumour cell growth, NCI panel, 48 h

Compared with `Cc1ccc(C(=O)Nc2ccc(S(=O)(=O)O)c3cc(S(=O)(=O)O)cc(S(=O)(=O)O)c23)cc1NC(=O)c1cccc(NC(=O)Nc2cccc(C(=O)Nc3cc(C(=O)Nc4ccc(S(=O)(=O)O)c5cc(S(=O)(=O)O)cc(S(=O)(=O)O)c45)ccc3C)c2)c1` (tested in a mixture with another compound), `O=C(Nc1cccc(-n2cc(-c3ccncc3)c(-c3ccc(O)c(Cl)c3)n2)c1)Nc1cccc(C(F)(F)F)c1` is lower in TGI: over 50 µM for the first, 7.87 µM for the second.

Compared with `Nc1nc(-c2cccc([N+](=O)[O-])c2)cc(-c2cc(-c3cccc([N+](=O)[O-])c3)nc(N)n2)n1`, `O=[N+]([O-])c1ccc2nc3ccccc3cc2c1` is lower in TGI: over 100 µM for the first, 11.1 µM for the second.

`N#Cc1nc(CCC(c2nc(C#N)c(N)o2)N2C(=O)c3ccccc3C2=O)oc1N` (stereo unspecified) and `O=C1c2ccccc2-c2nc(/C=C/c3ccccc3)cc3c2c1nc1ccccc13` cannot be ordered by TGI: over 100 µM for the first, over 100 µM for the second.

Compared with `CNCCCNCCCN1C(=O)c2ccc3c4c(ccc(c24)C1=O)C(=O)N(CCCNCc1ccccc1OC)C3=O`, `Cn1c(=O)c2c(nc(Nc3ccc(Cl)cc3)n3c(=O)n(-c4ccccc4)c(=O)n23)n(C)c1=O` is higher in TGI: 10.8 µM for the first, over 100 µM for the second.

`CC1(C)CCC(=O)NC1CC(=O)CC1NC(=O)CCC1(C)C` (stereo unspecified) and `CC1C(=O)O[C@H]2C1CC[C@@]1(C)[C@H](O)CC[C@@]13C[C@]2(O)OO3` (stereo partly specified) cannot be ordered by TGI: over 100 µM for the first, over 100 µM for the second.

First: CCN(CC)CCCC(C)NC(=O)c1ccc2c(c1)C(=O)c1ccccc1C2=O (stereo unspecified)
Second: CCN(CC)CCCOc1cc2c(cc1OC)C(=O)N1CCC[C@H]1C=N2
The TGI of the first is lower: 56.7 µM for the first, over 100 µM for the second.

First: Cc1c2c(cc3c(=O)ccn(CCN(C)C)c13)c(=O)ccn2CCN(C)C
Second: CN(C)CCCn1c2nc(=O)[nH]c(=O)c-2nc2cc(Cl)c(Cl)cc21
The TGI of the first is 2.5-fold higher: 34.2 µM for the first, 13.8 µM for the second.

First: COc1ccc(Oc2nc(C#CC(C)(C)O)nc(Oc3ccc(OC)cc3)n2)cc1
Second: COc1cc(Nc2nc3ccc(C(F)(F)F)cc3nc2-c2ccccc2)cc(OC)c1OC
The TGI of the first is lower: 30.5 µM for the first, over 100 µM for the second.

`Cc1[nH]nc2c1N=C(c1ccccc1Cl)c1cc([N+](=O)[O-])ccc1N2` and `COc1cc(/C=C2\C(=O)Nc3cccc(Cl)c32)cc(OC)c1OC` cannot be ordered by TGI: over 25 µM for the first, over 100 µM for the second.

`CS(=O)(=O)OCCCOS(C)(=O)=O` and `C#CCn1c(=O)c(Cl)cn(/C(=C/C(=O)OCC)C(=O)OCC)c1=O` cannot be ordered by TGI: over 100 µM for the first, over 56.4 µM for the second.

First: CC(=O)NC(Cc1ccc(OP(=O)(OCc2ccc([N+](=O)[O-])o2)N(C)CCCCCl)cc1)C(=O)NC(C)c1ccc(OCC2CCCCC2)c(C(N)=O)c1 (stereo unspecified)
Second: COc1cc2c(cc1OCCCCOc1ccc(-c3nc4ccccc4s3)cc1)N=C[C@@H]1CCCN1C2=O
The TGI of the first is 2.4-fold higher: 21.2 µM for the first, 8.81 µM for the second.

`COC(=O)C1C(OCc2ccccc2)C2CCC1(OC)C=C2C` (stereo unspecified) and `Nn1c(Cc2ccccc2)n[nH]c1=O` cannot be ordered by TGI: over 100 µM for the first, over 100 µM for the second.

Compared with `CN1CCN(c2ccc(C(=O)Nc3cc(-c4cccc(NS(=O)(=O)c5ccccc5)c4)[nH]n3)cc2)CC1`, `O=C(COc1cccc(/C=C2\CSc3ccccc3C2=O)c1)c1ccc(Cl)cc1` is 2.1-fold higher in TGI: 22.1 µM for the first, 47.5 µM for the second.

`COC(=O)c1cc(C(=CCC[C@H]2CC[C@@]3(C)C(CCC4C3CC[C@@]3(C)C4CC[C@@H]3C(C)CCCC(C)C)C2)c2cc(Cl)c(OC(=O)c3ccccc3)c(C(=O)OC)c2)cc(Cl)c1OC(=O)c1ccccc1` (stereo partly specified) and `C=C1C[C@@]2(C)C(CC[C@]3(C)C2CC=C2C4CC(C)(C)C[C@@H](OC(=O)/C(C)=C\C)[C@]4(C(=O)O)CC[C@]23C)C(C)(C)C1=O` (stereo partly specified) cannot be ordered by TGI: over 10 µM for the first, 16.7 µM for the second.

First: COc1ccccc1/C=C/C(=O)/C=C/c1ccccc1OC
Second: COc1cc2c(cc1OC)-c1cc3cc(OC)c(OC)cc3c(=O)n1CC2
The TGI of the first is lower: 11.7 µM for the first, over 84.4 µM for the second.

`Cc1ccc2c(c1)CNc1ccc(C)cc1CN2` and `O=c1c2ccccc2[nH]c2cc(O)cc(O)c12` cannot be ordered by TGI: over 100 µM for the first, over 100 µM for the second.

`CCSc1nnc(-c2ccc3ccccc3c2O)n1-c1ccc(Cl)cc1` and `Oc1ccccc1-c1n[nH]c(=S)n1/N=C/c1ccc(-c2ccc(Br)cc2)o1` cannot be ordered by TGI: over 100 µM for the first, over 100 µM for the second.

First: Clc1nc(Cl)c(CBr)c(Cl)n1
Second: O=[N+]([O-])c1c2nc3n(c2cc2c1nc1n2CCC1)CCC3
The TGI of the first is lower: 30.8 µM for the first, over 100 µM for the second.

`CC(C)(C)c1ccc(C(C)(C)C)c(N2C(=O)C3ON=C(c4ccc([N+](=O)[O-])cc4)C3C2=O)c1` (stereo unspecified) and `O=C1CS/C(=N\S(=O)(=O)c2ccc(N3N=C4c5ccccc5CC4C3c3ccc(Cl)cc3)cc2)N1c1ccccc1` (stereo unspecified) cannot be ordered by TGI: over 25 µM for the first, over 100 µM for the second.

Going from `C=C1C(=O)O[C@@H]2[C@H](O)[C@@H](C)[C@@H]3C=CC(=O)[C@@]3(C)[C@H](OC(=O)C=C(C)C)[C@H]12` to `O=C(O)C1CCCCC1c1c2ccc(=O)cc-2oc2cc(O)ccc12` (stereo unspecified), the TGI rises from 8.41 µM to over 100 µM.

`NC(CC1=CCC=CC1)C(=O)O` (stereo unspecified) and `O=c1c2cccnc2ncn1CCN1CCCC1` cannot be ordered by TGI: over 100 µM for the first, over 100 µM for the second.

In the case of `Cn1c(=O)c(Oc2ccccc2)cc2cnc(NC3CCOCC3)nc21`, the TGI is reported as over 25 µM.

`CNCCCNCCCN1C(=O)c2ccc3c4c(ccc(c24)C1=O)C(=O)N(CCCNCc1ccccc1OC)C3=O` and `COc1cc2c(cc1OCCCCOc1ccc(-c3nc4ccccc4s3)cc1)N=C[C@@H]1CCCN1C2=O` are within 1.5-fold of each other in GI50: 2.22 µM for the first, 2.7 µM for the second.

`Cc1[nH]nc2c1N=C(c1ccccc1Cl)c1cc([N+](=O)[O-])ccc1N2` and `COc1cc(/C=C2\C(=O)Nc3cccc(Cl)c32)cc(OC)c1OC` cannot be ordered by GI50: over 25 µM for the first, over 100 µM for the second.

`CN1CCN(c2ccc(C(=O)Nc3cc(-c4cccc(NS(=O)(=O)c5ccccc5)c4)[nH]n3)cc2)CC1` and `O=C(COc1cccc(/C=C2\CSc3ccccc3C2=O)c1)c1ccc(Cl)cc1` are within 1.5-fold of each other in GI50: 9.4 µM for the first, 14 µM for the second.

First: O=C(Nc1cccc(-n2cc(-c3ccncc3)c(-c3ccc(O)c(Cl)c3)n2)c1)Nc1cccc(C(F)(F)F)c1
Second: O=C1CS/C(=N\S(=O)(=O)c2ccc(N3N=C4c5ccccc5CC4C3c3ccc(Cl)cc3)cc2)N1c1ccccc1 (stereo unspecified)
The GI50 of the first is 7.9-fold lower: 2.44 µM for the first, 19.3 µM for the second.

Compared with `CN(C)CCCn1c2nc(=O)[nH]c(=O)c-2nc2cc(Cl)c(Cl)cc21`, `CCSc1nnc(-c2ccc3ccccc3c2O)n1-c1ccc(Cl)cc1` is 1.9-fold higher in GI50: 3.87 µM for the first, 7.46 µM for the second.

Compared with `COc1ccccc1/C=C/C(=O)/C=C/c1ccccc1OC`, `Cn1c(=O)c(Oc2ccccc2)cc2cnc(NC3CCOCC3)nc21` is higher in GI50: 3.54 µM for the first, over 25 µM for the second.

`C=C1C[C@@]2(C)C(CC[C@]3(C)C2CC=C2C4CC(C)(C)C[C@@H](OC(=O)/C(C)=C\C)[C@]4(C(=O)O)CC[C@]23C)C(C)(C)C1=O` (stereo partly specified) was tested, and the GI50 was 4.54 µM.
